Measurements: the supplement of paper PMC5919970
Counter-ions that a name gives are not always drawn. The full ranking holds about 2,000 compounds; the median of “fractional viability relative to vehicle” is about 0.91, and the lowest 2% start at about 0.045. This is one part of the list.

Tested on: TYKNU
Test: fractional viability relative to vehicle; TYKNU is a high-grade serous ovarian cancer line; higher = less growth inhibition
Details: 72 h
Outline: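 TYKNU control cells or lentiCRISPRv2 knockout derivatives were plated at 500 cells per well in duplicate into drug-stamped 384-well plates holding a ~2100-compound library at 2 or 10 μM. Culture was in RPMI 1640 with 10% FBS at 37 °C in 5% CO2, with 72 h of drug treatment. Viability was measured by Cell Titer Glo luminescence, and the averaged duplicate treatment wells were normalised to duplicate control wells at the same plate position.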

[1] = 2uM, genotype: DNM1L knockout (sgDNM1L #1)
[2] = 2uM, genotype: sgCTRLA1 (non-targeting control)
[3] = 10uM, genotype: DNM1L knockout (sgDNM1L #1)
[4] = 10uM, genotype: sgCTRLA1 (non-targeting control)

| SMILES | fractional viability [1] | fractional viability [2] | fractional viability [3] | fractional viability [4] |
| --- | --- | --- | --- | --- |
| O=C1c2ccccc2C(=O)C1c1ccccc1 [Phenindione] | 0.918 | 1.13 | 0.798 | 1.05 |
| Cc1ccc(N(CC2=NCCN2)c2cccc(O)c2)cc1 [Phentolamine Mesylate] | 1.02 | 1.12 | 0.918 | 0.906 |
| CC(C)Nc1cc(-c2c[nH]c(C(=O)N[C@H](CO)c3cccc(Cl)c3)c2)c(Cl)cn1 | 0.251 | 0.255 | 0.232 | 0.201 |
| CNC[C@@H](O)c1ccc(O)c(O)c1 [L-Adrenaline] | 0.842 | 1 | 0.784 | 0.91 |
| CCc1ccc(CCOc2ccc(CC3SC(=O)NC3=O)cc2)nc1 (stereo not given) [Pioglitazone] | 0.886 | 0.965 | 0.758 | 0.766 |
| CCc1ccc(CCOc2ccc(CC3SC(=O)NC3=O)cc2)nc1 (stereo not given) [Pioglitazone HCl] | 1.08 | 1.22 | 0.855 | 1.14 |
| CO[C@H]1/C=C/O[C@@]2(C)Oc3c(C)c(O)c4c(O)c(c(/C=N/N5CCN(C)CC5)c(O)c4c3C2=O)NC(=O)/C(C)=C\C=C\[C@H](C)[C@H](O)[C@@H](C)[C@@H](O)[C@@H](C)[C@H](OC(C)=O)[C@@H]1C [Rifampin] | 0.971 | 1.05 | 0.66 | 0.955 |
| Cc1c(Cl)cccc1Nc1ccccc1C(=O)O [Tolfenamic Acid] | 0.957 | 1.03 | 1.01 | 1.03 |
| CCCSc1ccc2[nH]c(NC(=O)OC)nc2c1 [Albendazole] | 0.27 | 0.3 | 0.136 | 0.192 |
| C#C[C@]1(OC(C)=O)CC[C@H]2[C@@H]3CCC4=C[C@@H](OC(C)=O)CC[C@@H]4[C@H]3CC[C@@]21C [Ethynodiol diacetate] | 1 | 1.19 | 0.788 | 1.09 |
| Nc1ccc(S(=O)(=O)Nc2ncccn2)cc1 [Sulfadiazine] | 1.09 | 1.02 | 0.949 | 0.991 |
| CCCC(C)NC(=O)c1ccc(Cl)c(Cl)c1 (stereo not given) | 0.893 | 0.909 | 0.756 | 0.714 |
| CNC1CCC(N(Cc2cccc(-c3ccncc3)c2)C(=O)c2sc3ccccc3c2Cl)CC1 (stereo not given) [Smoothened Agonist (SAG) HCl] | 0.827 | 0.917 | 0.168 | 0.128 |
| C=CCc1cc(OC)c(O)c(C(=O)NCCO)c1 [Alibendol] | 0.958 | 1.1 | 0.892 | 1.09 |
| CCOc1cn(-c2ccc(F)cc2C)nc1C(=O)Nc1ccc(Oc2ccnc3cc(OC)c(OC)cc23)c(F)c1 | 0.726 | 1.02 | 0.908 | 0.827 |
| C#C[C@]1(O)CC[C@H]2[C@@H]3CCC4=CC(=O)CC[C@@H]4[C@H]3CC[C@@]21C [Norethindrone] | 1.06 | 1.21 | 0.763 | 0.977 |
| NC(=O)c1cccc2[nH]c(-c3ccc(C4CCCN4)cc3F)nc12 (stereo not given) | 0.801 | 1.01 | 0.782 | 0.798 |
| COC(=O)C1=C(C)NC(C)=C(C(=O)OC)C1c1ccccc1[N+](=O)[O-] [Nifedipine] | 1 | 0.977 | 0.906 | 0.947 |
| CC(C)NC[C@H](O)COc1ccc(CCOCC2CC2)cc1 [Levobetaxolol HCl] | 1.13 | 1.21 | 0.846 | 1.27 |
| COc1cc2c(cc1O)CC[C@@H]1[C@@H]2CC[C@]2(C)[C@@H](O)CC[C@@H]12 [2-Methoxyestradiol (2-MeOE2)] | 0.293 | 0.325 | 0.228 | 0.318 |

| SMILES | fractional viability [1] | fractional viability [2] | fractional viability [3] | fractional viability [4] |
| --- | --- | --- | --- | --- |
| Nc1ccc(O)c(C(=O)O)c1 [Mesalamine] | 0.863 | 1.02 | 0.955 | 1.06 |
| COC(=O)N1CCN(Cc2cccc(NC(=O)Nc3ccc(C)nc3)c2F)CC1 | 0.991 | 1.18 | 0.966 | 1.15 |
| O=C(O)CSc1cc(NS(=O)(=O)c2ccc(Br)cc2)c2ccccc2c1O | 0.88 | 0.983 | 0.339 | 0.475 |
| N=c1ccn2c(n1)O[C@H]1[C@H](O)[C@@H](CO)O[C@H]12 [Cyclocytidine HCl] | 0.735 | 0.582 | 0.499 | 0.387 |
| CNC(=O)c1ccc2cc([C@@]3(O)CCn4cncc43)ccc2c1 [TAK-700 (Orteronel)] | 1.03 | 1.06 | 0.86 | 1.04 |
| CC(=O)Oc1cc(C(F)(F)F)ccc1C(=O)O [Triflusal] | 1.08 | 1.05 | 0.782 | 1.03 |
| Cc1cncc(CN2CCC(=C3c4ccc(Cl)cc4CCc4cccnc43)CC2)c1 [Rupatadine Fumarate] | 1.07 | 1.02 | 0.71 | 0.83 |
| CS(=O)(=O)c1ccc([C@@H](O)[C@@H](CO)NC(=O)C(Cl)Cl)cc1 [Thiamphenicol] | 1.09 | 1.01 | 0.686 | 0.415 |
| O=c1[nH]cc(F)c(=O)[nH]1 [Fluorouracil (5-Fluoracil, 5-FU)] | 0.896 | 1.1 | 0.78 | 0.781 |
| CNC(=O)c1ccccc1Oc1nc(Nc2cc(OC)c(OC)c(OC)c2)ncc1Br | 0.847 | 0.94 | 0.581 | 0.589 |
| C[C@]12C=CC(=O)C=C1CC[C@@H]1[C@@H]2[C@@H](O)C[C@@]2(C)[C@H]1CC[C@]2(O)C(=O)CO [Prednisolone] | 1.14 | 1.26 | 0.976 | 1.14 |
| O=c1ncn2nc(Sc3ccc(F)cc3F)ccc2c1-c1c(Cl)cccc1Cl | 1.06 | 0.994 | 0.88 | 0.938 |
| Cc1c(NC(=O)c2ccc(C(C)(C)C)cc2)cccc1-c1cn(C)c(=O)c(Nc2ccc(C(=O)N3CCOCC3)cc2)n1 | 1.01 | 1.09 | 0.65 | 0.821 |
| O=C(O)Cc1ccccc1Nc1c(Cl)cccc1Cl [Diclofenac Diethylamine] | 1 | 1.03 | 0.893 | 1.14 |
| O=C(O)Cc1ccccc1Nc1c(Cl)cccc1Cl [Diclofenac Sodium] | 1.12 | 0.938 | 0.917 | 0.967 |
| O=C(O)Cc1ccccc1Nc1c(Cl)cccc1Cl [Diclofenac Potassium] | 1.17 | 1.13 | 0.876 | 1.07 |
| C[C@@H](c1ncncc1F)[C@](O)(Cn1cncn1)c1ccc(F)cc1F [Voriconazole] | 0.953 | 1.24 | 0.887 | 1.11 |
| C[C@@H]1CC(=O)NN=C1c1ccc(NN=C(C#N)C#N)cc1 [Levosimendan] | 0.946 | 1.02 | 0.676 | 0.71 |
| CN(C)CCCNC(=O)c1ccc(-c2cc(O)c3ncccc3c2)cc1 | 0.742 | 0.892 | 0.514 | 0.541 |
| NC1(c2ccc(-c3nc4ccn5c(=O)[nH]nc5c4cc3-c3ccccc3)cc2)CCC1 | 0.85 | 0.853 | 0.346 | 0.228 |

| SMILES | fractional viability [1] | fractional viability [2] | fractional viability [3] | fractional viability [4] |
| --- | --- | --- | --- | --- |
| Nc1cccc(S(=O)(=O)N2CCCN(S(=O)(=O)c3ccc4c(c3)OCCO4)CC2)c1 | 0.767 | 0.995 | 0.742 | 0.647 |
| CC[C@H](C)n1cc(C)c2c(C(=O)NCc3c(C)cc(C)[nH]c3=O)cc(-c3ccc(N4CCNCC4)nc3)cc21 | 0.835 | 0.889 | 0.338 | 0.358 |
| Cc1cccc(-c2[nH]c(C(C)(C)C)nc2-c2ccc3nccnc3c2)n1 | 1.02 | 1.21 | 0.902 | 1.08 |
| CC[C@@]1(O)C(=O)OCc2c1cc1n(c2=O)Cc2cc3cc(O)ccc3nc2-1 [(S)-10-Hydroxycamptothecin] | 0.0946 | 0.101 | 0.0697 | 0.073 |
| CN1CCN(CCCNc2ncc(Cl)c(-c3cc4c(C(=O)NC5CC5)cccc4s3)n2)CC1 | 0.789 | 1.05 | 0.73 | 0.719 |
| NC(=O)c1noc([C@H](CCCC2CCCCC2)CC(=O)NO)n1 | 0.928 | 1.03 | 0.623 | 0.827 |
| CCn1c(=O)c(-c2ccc(-c3cncs3)cc2Cl)cc2cnc(Nc3ccc(N4CCN(C)CC4)cc3)nc21 | 0.596 | 0.857 | 0.521 | 0.793 |
| O=C1NC(=O)/C(=C/c2ccc(-c3ccc(F)cc3O)o2)S1 | 0.764 | 1.12 | 0.64 | 0.89 |
| CC(C)CCN1c2nc(Nc3cc(F)c(O)c(F)c3)ncc2N(C)C(=O)C1C (stereo not given) | 1.29 | 1.04 | 0.556 | 0.539 |
| OC[C@@H](O)[C@@H](O)CO [Erythritol] | 0.77 | 0.989 | 0.705 | 0.968 |
| Cc1cnc(Nc2ccc(N3CCN(C)CC3)cc2)nc1Nc1cccc(S(=O)(=O)NC(C)(C)C)c1 | 0.363 | 0.472 | 0.0682 | 0.0804 |
| COC(=O)c1ccc2c(c1)NC(=O)/C2=C(\Nc1ccc(N(C)C(=O)CN2CCN(C)CC2)cc1)c1ccccc1 [Nintedanib (BIBF 1120)] | 0.903 | 0.889 | 0.152 | 0.147 |
| CC(C)C[C@H](NC(=O)CNC(=O)c1cc(Cl)ccc1Cl)B(O)O | 0.122 | 0.107 | 0.0888 | 0.0714 |
| O=C(O[C@@H]1Cc2c(O)cc(O)cc2O[C@@H]1c1cc(O)c(O)c(O)c1)c1cc(O)c(O)c(O)c1 [(-)-Epigallocatechin Gallate] | 0.973 | 1.04 | 0.877 | 1.02 |
| CCN(CC)CCN(Cc1ccc(-c2ccc(C(F)(F)F)cc2)cc1)C(=O)Cn1c(SCc2ccc(F)cc2)nc(=O)c2c1CCC2 | 0.329 | 0.569 | 0.0156 | 0.00842 |
| N#C[C@@H]1CCCN1C(=O)CNC12CC3CC(CC(O)(C3)C1)C2 [Vildagliptin (LAF-237)] | 0.917 | 1.12 | 1.04 | 1.01 |
| Cc1nc(Nc2n[nH]c3c2CN(C(=O)N[C@H](CN(C)C)c2ccccc2)C3(C)C)c2sccc2n1 | 0.127 | 0.16 | 0.115 | 0.135 |
| CCOc1ccn(-c2ccc(F)cc2)c(=O)c1C(=O)Nc1ccc(Oc2ccnc(N)c2Cl)c(F)c1 | 0.895 | 1.09 | 0.69 | 0.921 |
| CNC[C@H](O)c1cccc(O)c1 [Phenylephrine HCl] | 0.818 | 0.894 | 0.784 | 0.899 |
| N[C@@H]1CN(c2c(F)cc3c(=O)c(C(=O)O)cn([C@@H]4C[C@@H]4F)c3c2Cl)CC12CC2 [Sitafloxacin Hydrate] | 1.23 | 1.21 | 1.13 | 1.12 |
